# In all, about 350,000 compounds went through this assay and about 260 (0.074%) were called active. Inconclusive means that the source gave no clear call. Such entries were picked first, then a sample of the others. Calls come from the whole dose curve; as a rule, active = well fitted inhibition curve with a large enough effect; inconclusive = small, poorly fitted or top-dose-only effect; inactive = no such curve, though single readings can be large or run the other way. A potency beside an inconclusive call is a rough fit, not a confirmed value.
# Target: Ferritin light chain (Equus caballus) (UniProt P02791)
# Test: qHTS Assay for Identification of Novel General Anesthetics; note: nearly all actives have a fitted effect of over 20% in size
# Settings: apoferritin/1-aminoanthracene competitive binding, fluorescence; activity change, negative = displacement: at 77.5 µM (top of the series)
# In short: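 10 uM apoferritin + 50% sat. 1-AMA, PBS; cpd 10 min RT; Ex380/Em535 endpoint; normalized to free probe vs complex; 4-param Hill fit; propofol titration as pos. ctrl.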
# % is set by controls: 0 for no effect and ±100 for the full control effect; potency is the fitted concentration of half-maximal effect; tags give direction and shape of the fitted curve.
# Chain of UniProt P02791 (P02791 whole entry, looked up): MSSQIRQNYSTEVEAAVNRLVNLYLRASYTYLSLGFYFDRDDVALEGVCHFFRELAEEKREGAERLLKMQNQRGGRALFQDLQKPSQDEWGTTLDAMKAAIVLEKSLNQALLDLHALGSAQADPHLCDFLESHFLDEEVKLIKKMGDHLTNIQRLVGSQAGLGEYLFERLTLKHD
SMILES,Potency,"activity change, negative = displacement"
Cc1cc(C)c2c(=O)cc(C(=O)Nc3ccc(S(=O)(=O)Nc4nc(C)cc(C)n4)cc3)oc2c1,"inconclusive: 14.1 µM [inhibitor, partial curve]",–
Cc1cccc(NC(=S)NCc2ccc(F)cc2)c1,–,inactive: 1.86%
O=C(CSCc1ccccc1)N/N=C/c1ccccc1OCc1ccccc1,"inconclusive: 1.78 µM [inhibitor, partial curve]",–
Cc1ccc2c(c1)N(C(=O)CCC(=O)NC1CCCCCC1)CC(C)O2 (centres undefined),"inconclusive: 20 µM [inhibitor, partial curve]",–
CCOc1ccc(NC(=O)N2CCOc3ccccc32)cc1,"inconclusive: 39.8 µM [inhibitor, single point]",–
COc1cccc(=O)c2c(C)n(-c3cc(C)cc(C)c3)c(C)c12,"inconclusive: 31.6 µM [inhibitor, partial curve]",–
CCN(CC)S(=O)(=O)c1ccc(NC(=O)CC(NC(C)=O)c2ccccc2)cc1 (centres undefined),"inconclusive: 31.6 µM [inhibitor, partial curve]",–
CCOC(=O)N1CCC(Nc2c(OCC)c(=O)c2=O)CC1,–,inactive: -1.24%
COC(=O)C(NC(=O)c1ccc(F)cc1)(Nc1ncc(S(=O)(=O)c2ccc([N+](=O)[O-])cc2)s1)C(F)(F)F (centres undefined),"inconclusive: 39.8 µM [inhibitor, partial curve]",–
Cc1ccc(SCC(=O)O/N=C(\N)c2ccc([N+](=O)[O-])cc2)cc1,"inconclusive: 28.2 µM [inhibitor, partial curve]",–
Oc1ccc2ccccc2c1CNc1ccc(Br)cn1,–,inactive: -0.0627%
Cc1n[nH]c(C)c1CCc1nc2c3ccccc3nc(SCC(=O)Nc3ccccc3F)n2n1,"inconclusive: 12.6 µM [inhibitor, partial curve]",–
CCN(CC)C(=O)CC(c1ccc(N(C)C)cc1)c1c(OC)cc(OC)c2c(-c3ccccc3)cc(=O)oc12 (centres undefined),"inconclusive: 15.8 µM [inhibitor, partial curve]",–
COc1ccccc1NC(=O)CSc1nnnn1-c1ccc2c(c1)OCO2,–,inactive: -11.7%
O=C(NNC(=O)c1ccccc1Cl)c1cc2cc(OC(F)(F)F)ccc2[nH]1,–,inactive: 5.27%
CSc1nsc(SCC(=O)Nc2ccc(Br)cn2)n1,"inconclusive: 11.2 µM [inhibitor, partial curve]",–
CCOC(=O)c1c(S(=O)(=O)N2CCN(C3CCCCC3)CC2)c(C)n(C)c1C,–,inactive: -4.4%
O=C(/C=C/c1ccc(Cl)cc1Cl)Nc1ccncc1,–,inactive: -3.15%
O=C(C1CC1)N1N=C2CCCCC2C1(O)C(F)(F)F (centres undefined),"inconclusive: 25.1 µM [inhibitor, partial curve]",–
